The whole screen tested about 48,000 compounds, of which about 550 (1.1%) were called active. Not shown: some 4% with an inconclusive outcome. Rule as the data show it: active = potency below about 15 µM; inconclusive = mostly about 16 µM to 33 µM; inactive = weaker than that. The list shows a part of the results.
Target: Lysosomal acid glucosylceramidase (Homo sapiens) (UniProt P04062)
Assay: Glucocerebrosidase;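 also: the screen sought inhibitors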
Conditions: purified enzyme, resorufin glucoside fluorescence (screen aimed at inhibitors), 20 min
How it was run: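 Wild-type enzyme at 0.2 nM final in 50mM citric acid/KH2PO4, 10mM sodium taurocholate, 0.01% tween-20, pH 5.9, with resorufin beta-D-glucopyranoside at 30 uM final. Compounds titrated, 20 min at RT, red fluorescence read; AC50 from titration.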
Potency is read from the fitted curve at half-maximal effect.

Chain of UniProt P04062 (P04062 whole entry, looked up): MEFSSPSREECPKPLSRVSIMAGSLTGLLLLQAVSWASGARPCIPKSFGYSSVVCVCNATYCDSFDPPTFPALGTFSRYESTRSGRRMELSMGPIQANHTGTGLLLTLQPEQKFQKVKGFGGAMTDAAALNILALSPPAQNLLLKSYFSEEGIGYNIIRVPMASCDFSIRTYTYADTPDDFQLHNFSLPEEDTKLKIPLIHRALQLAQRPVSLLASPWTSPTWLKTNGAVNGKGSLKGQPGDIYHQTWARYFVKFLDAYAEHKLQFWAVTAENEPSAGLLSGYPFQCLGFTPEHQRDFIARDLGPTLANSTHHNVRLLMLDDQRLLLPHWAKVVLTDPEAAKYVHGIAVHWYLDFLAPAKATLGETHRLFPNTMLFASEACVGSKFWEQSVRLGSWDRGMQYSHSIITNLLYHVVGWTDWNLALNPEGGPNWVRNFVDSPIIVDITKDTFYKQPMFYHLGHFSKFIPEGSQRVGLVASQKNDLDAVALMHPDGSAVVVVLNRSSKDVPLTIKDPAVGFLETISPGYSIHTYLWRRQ

Potency, inactive:
CCCCCn1c(CN2CCN(Cc3ccccc3)CC2)nc2c1c(=O)n(C)c(=O)n2C > 76.9 µM
CCc1ccc(OCC(O)CN2CCN(c3ccccc3)CC2)cc1 (stereo not given) > 76.9 µM
CCOC(=O)C(NC(=O)CC)(Nc1ccc(S(=O)(=O)Nc2ncccn2)cc1)C(F)(F)F (stereo not given) > 76.9 µM
CC1C2CC(C(S(=O)(=O)N3CCOCC3)C2=O)C1(C)C (stereo not given) > 76.9 µM
Cc1ccc(C(=O)Nc2cccc(C(=O)NCc3ccco3)c2)cc1 > 76.9 µM
Cc1nc(NC(=O)c2ccccc2)sc1-c1csc(N)n1 > 76.9 µM
COc1ccc(-c2csc(Cc3nnc4n3CCCCC4)n2)cc1OC > 76.9 µM
CCCCCOc1ccc(C2C(C(C)=O)=C(C)Nc3ncnn32)cc1OC (stereo not given) > 76.9 µM
NC(=O)C1CCN(c2nc(C3CC3)nc3c2nnn3Cc2ccccc2Cl)CC1 > 76.9 µM
CC(C)Cn1c(=O)c(C(=O)Nc2cnccn2)c(O)c2ccccc21 > 76.9 µM
CN1CCN(CCC(=O)Nc2ccccc2Cl)CC1 > 76.9 µM
O=C(Cn1nnc2ccccc2c1=O)Nc1cc(C(F)(F)F)ccc1N1CCOCC1 > 76.9 µM
N#Cc1nc(-c2ccc(OCc3ccc(Cl)cc3)cc2)oc1NCCCn1ccnc1
O=C(Nc1ccccc1-c1nnn(CC(=O)N2CCN(c3ccccc3)CC2)n1)c1cccs1 > 76.9 µM
N#CC12C(N)=NC3(OCCO3)C1(C#N)C1=C(CCC1)NC2c1ccccc1 (stereo not given) > 76.9 µM
CC(C)C(c1nnnn1Cc1ccccc1)N1CCN(Cc2ccc3c(c2)OCO3)CC1 (stereo not given) > 76.9 µM
CCCCN(CCCNC(=O)c1c(C)cc(=O)oc1C)c1ccccc1 > 76.9 µM
COCCn1c(SCC(=O)N2CCCC2)nnc1-c1ccoc1C > 76.9 µM
C=CCn1c(SCC(N)=O)nnc1-c1ccccc1O > 76.9 µM
COc1ccc(CCNC(=O)CSc2ncnc3c2oc2ccccc23)cc1OC > 76.9 µM
O=C(CSc1nnc(COc2ccc(Cl)cc2)o1)OC1CCCCC1 > 76.9 µM
O=C(Cc1ccccc1)Nc1ccccc1CO > 76.9 µM
CC(C)N(C(=O)CSc1nn2c(=O)c(C(C)(C)C)nnc2s1)c1ccccc1 > 76.9 µM
CN1C(=O)N(C)C2(c3ccccc3)NC(=O)NC12c1ccccc1 (stereo not given) > 76.9 µM
CCc1ccccc1NS(=O)(=O)c1ccc(SC)cc1 > 76.9 µM

— PubChem BioAssay AID360 (National Center for Advancing Translational Sciences (NCATS), 2006)
